Reference: article PMC4336329 (PLoS ONE, 2015)
The campaign covered roughly 310,000 compounds. About 2,200 (0.71%) showed an effect of 50% or more. Effects have a minus sign here. The list shows a part of the results.

target: human ether-à-go-go-related gene (hERG) potassium channel (human, UniProt Q12809); experiment: primary screen, population patch clamp on CHO cells stably expressing hERG
Sequence (Q12809 whole entry, looked up): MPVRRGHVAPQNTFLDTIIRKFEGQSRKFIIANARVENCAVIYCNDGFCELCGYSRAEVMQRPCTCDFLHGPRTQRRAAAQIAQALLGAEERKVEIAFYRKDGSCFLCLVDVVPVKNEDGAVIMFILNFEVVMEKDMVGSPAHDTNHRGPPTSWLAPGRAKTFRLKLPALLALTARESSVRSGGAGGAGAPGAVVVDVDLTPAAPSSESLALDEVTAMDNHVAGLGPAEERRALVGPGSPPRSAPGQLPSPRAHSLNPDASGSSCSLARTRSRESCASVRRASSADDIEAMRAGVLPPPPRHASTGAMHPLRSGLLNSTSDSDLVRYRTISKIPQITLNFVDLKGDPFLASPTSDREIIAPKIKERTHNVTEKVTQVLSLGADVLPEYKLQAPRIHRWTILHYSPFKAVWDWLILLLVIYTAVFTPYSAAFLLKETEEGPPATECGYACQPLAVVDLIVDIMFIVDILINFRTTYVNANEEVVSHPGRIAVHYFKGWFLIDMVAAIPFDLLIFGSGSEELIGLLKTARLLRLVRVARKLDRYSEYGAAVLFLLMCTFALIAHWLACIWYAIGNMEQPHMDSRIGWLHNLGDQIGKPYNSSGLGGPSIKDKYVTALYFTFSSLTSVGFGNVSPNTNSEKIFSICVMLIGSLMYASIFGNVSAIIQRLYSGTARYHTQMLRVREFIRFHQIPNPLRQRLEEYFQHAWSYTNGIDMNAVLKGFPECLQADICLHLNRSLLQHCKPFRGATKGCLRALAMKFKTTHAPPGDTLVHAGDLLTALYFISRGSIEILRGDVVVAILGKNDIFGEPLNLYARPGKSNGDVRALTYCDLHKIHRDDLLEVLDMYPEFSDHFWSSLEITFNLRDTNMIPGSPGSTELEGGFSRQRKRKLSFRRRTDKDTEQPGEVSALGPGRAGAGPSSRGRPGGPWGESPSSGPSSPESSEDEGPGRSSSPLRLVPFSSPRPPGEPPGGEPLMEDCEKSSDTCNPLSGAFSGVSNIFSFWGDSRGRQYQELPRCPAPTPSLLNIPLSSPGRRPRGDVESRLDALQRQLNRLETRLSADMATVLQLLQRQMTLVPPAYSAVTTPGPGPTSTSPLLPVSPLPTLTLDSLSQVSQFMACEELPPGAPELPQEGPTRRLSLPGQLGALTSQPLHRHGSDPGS

| Compound | hERG current change (%, negative = inhibition) at 1uM |
| --- | --- |
| CC(C)N(Cc1cnn(C)c1)Cc1nc(-c2ccc(Cl)cc2)no1 | 4.78% |
| COc1ccc(CN(C)CC(=O)NC(=O)NC2CCCCC2)cc1 | 3.48% |
| O=C(COc1cc2oc(=O)c3c(c2cc1Cl)CCCC3)N1C[C@H]2C[C@@H](C1)c1cccc(=O)n1C2 | 3.08% |
| c1ccc(CSc2nncn2-c2ccccn2)cc1 | 7.05% |
| Cc1nc2ccccn2c1C(=O)NCC(C)C | 2.59% |
| NNC(=S)NC1CCCCC1 | 14.6% |
| O=C(O)CNC(=S)N(Cc1ccccc1)Cc1cccs1 | 8.41% |
| CN(CC(=O)Nc1ccccc1N1CCOCC1)CC(=O)Nc1ccc(F)c(F)c1F | 9.95% |
| O=C(CCN1C(=O)/C(=C\c2cccs2)SC1=S)Nc1nccs1 | 11.6% |
| COc1ccc(CCn2c([S-])nc3ccccc3c2=O)cc1.[Na+] | 11.5% |
| NNc1nnc(-c2ccccc2)c(-c2ccccc2)n1 | 0.176% |
| CCc1ccc2nc(NC(=O)CCCc3cccs3)sc2c1 | 19.4% |
| COc1cc(C(=O)N2CCC(n3c(C)nc4cc(F)ccc43)CC2)cc(OC)c1OC | 1.29% |
| CCOC(=O)c1ccoc1CSCc1ccc(C(=O)OC)o1 | 11.1% |
| Cl.O=C(CCN1CCCCC1)c1ccc2c(c1)OCCO2 | 8.98% |
| Cc1cccnc1NC(=O)CCCN1C(=O)c2ccccc2C1=O | 8.7% |
| CC(C)OC(=O)NS(=O)(=O)c1cccc([N+](=O)[O-])c1 | 12.3% |
| COc1ccc(CNc2nc(SCc3cc(=O)n4cc(Cl)ccc4n3)nc3ccccc23)cc1 | -4.12% |
| Brc1ccc(-c2nnc(-c3ccccc3)c(N3CCSCC3)n2)cc1 | 14.6% |
| CC(C)(C)c1ccc(OCCC(=O)Nc2cccc(S(=O)(=O)N3CCCCC3)c2)cc1 | 15.3% |
| CSc1ccc(S(=O)(=O)N2CCC(C(=O)Nc3ccc(C(N)=O)cc3)CC2)cc1 | 15.4% |
| COc1ccc(-n2nnnc2-c2cn(C)nc2C(F)(F)F)cc1 | 7.4% |

| Compound | hERG current change (%, negative = inhibition) at 1uM |
| --- | --- |
| O=C(NCc1nc2ccccc2[nH]1)C1=C[C@H](c2coc3ccccc3c2=O)C[C@H](OCCCCO)O1 | -9.51% |
| CN1CCC(=C(c2ccc(Cl)cc2)c2ccccn2)CC1.O=C([O-])/C=C\C(=O)[O-] | -0.919% |
| Cn1c(=O)c(Oc2cc(Cl)cc(Cl)c2)nc2ccccc21 | 2.74% |
| Cc1ccc(Nc2cc(C)nc3nc(C)nn23)c(C)c1 | 12.3% |
| CC(C)[C@H](NC(=O)c1ccccc1)C(=O)Nc1cccc(S(=O)(=O)N2CCOCC2)c1 | 7.63% |
| CCOc1ccccc1N(CC(=O)NCCSc1ccccn1)S(=O)(=O)c1ccccc1 | 9.37% |
| CCOC(=O)C1CCCN(c2c(NCCc3ccc(Cl)cc3)c(=O)c2=O)C1 (stereo not drawn) | 7.74% |
| Cc1ccc(C2=NN(C3=NN=C(N)Cc4ncnn43)C(O)(C(F)(F)F)C2)cc1 (stereo not drawn) | 16.6% |
| CCOC(=O)C(=Nc1ccccc1)NO | 13% |
| Cc1ccccc1CS(=O)(=O)c1nnc([C@H](Cc2ccccc2)NC(=O)OC(C)(C)C)o1 | 3.92% |
| CNC(=O)c1ccccc1S(=O)(=O)c1ccccc1C#N | 9.29% |
| COc1ccc(/C=C/C(=O)NC2CCCCCC2)cc1S(=O)(=O)N1CCOCC1 | 11.3% |
| Cc1nn(C)c(C(=O)Nc2ccc(S(=O)(=O)NC34CC5CC(CC(C5)C3)C4)cc2)c1Br | 12.2% |
| COc1ccc(NC(=O)CCC(=O)N/N=C/c2ccc([N+](=O)[O-])s2)cc1 | -2.67% |
| Cc1cccc(N/C(N)=N/c2nc(C(F)(F)F)cc(C(F)(F)F)n2)c1 | 16.1% |
| CCN(CC)S(=O)(=O)c1ccc(C(=O)NC2CN3CCC2CC3)cc1 (stereo not drawn) | 17.1% |
| COC(=O)C1C2C=CC3(CN(C(C)C)C(=O)C13)O2 (stereo not drawn) | 16.8% |
| CN(CC(=O)Nc1cccc(F)c1)CC(=O)Nc1ccccc1Oc1ccccc1.O=C(O)C(=O)O | 7.88% |
| Cn1c(=N)c(S(=O)(=O)c2ccccc2)cc2c(=O)n3ccccc3nc21 | 4.52% |
| CCc1ccccc1Nc1nc(N)nc(CSCC(=O)Nc2ccc(C)c(C)c2)n1 | -0.266% |
| O=S(=O)(c1ccc2nc(-c3ccccc3)[nH]c2c1)N1CCN(c2cccc(Cl)c2)CC1 | 8.43% |
| O=C(CCNS(=O)(=O)c1c(Cl)cccc1Cl)OCC(=O)c1ccccc1 | 10.4% |

| Compound | hERG current change (%, negative = inhibition) at 1uM |
| --- | --- |
| Cc1ccc(Nc2cc(C)nc(-c3ccccc3)n2)cc1 | 10.4% |
| O=c1c2ccccc2nc2ccc(NCc3ccco3)nn12 | -27.4% |
| Clc1ccccc1/C=C/c1nc(-c2cccnc2)no1 | 12.5% |
| COc1ccc(C(CNC(=O)c2ccccc2SC)N(C)C)cc1 (stereo not drawn) | 6.99% |
| COc1ccc(OC2OC3COC(C)(C)OC3C(O)C2NC(C)=O)cc1 (stereo not drawn) | 9.1% |
| COc1cc(OC)nc(NC(=O)COC(=O)C2CCCCC2)n1 | 8.48% |
| O=C(CCS(=O)(=O)c1ccc(Br)cc1)N1CCN(c2ccccc2Cl)CC1 | 2.11% |
| CCc1cc(C(=O)N2CCCC(CCC(=O)NCc3cccc(OC)c3)C2)no1 (stereo not drawn) | 9.45% |
| CCCn1c(=N)c(C#N)cc2c(=O)n3cccc(C)c3nc21 | -20.2% |
| CCOC(=O)CCc1c(C)c2ccc(O)cc2oc1=O | 10.6% |
| COc1ccc(CC(=O)c2ccccc2C(=O)O)cc1 | 12.1% |
| CN(CC(=O)Nc1cccc(F)c1)C(=O)c1ccc2c(c1)OCCO2 | -0.385% |
| COc1ccc(N2C(=O)Cc3c2nc(N)c(C#N)c3N)cc1 | 15.7% |
| CCS(=O)(=O)c1ccc2oc(SCC(=O)Nc3ccc(OC)cc3OC)nc2c1 | 29.2% |
| CC(=C/c1ccccc1)/C=C1/SC(N2CCOCC2)=NC1=O | 10.1% |
| Cc1n[nH]c(=S)n1/N=C/c1ccc(OCc2ccc(Cl)cc2Cl)cc1 | 15.3% |
| Cc1cccc(C(=O)NCC(c2ccc(F)cc2)N2CCOCC2)c1 (stereo not drawn) | 0.0425% |
| COc1cccc(CN(C)C(=O)Cc2c[nH]c3ccccc23)c1OC | 13.2% |
| CCN1C(=O)/C(=C2/C=Cc3cc(C)ccc3N2CC)N(C)C1=S | -14.1% |
| C=CCN1C(=O)N(c2ccc(Cl)cc2)C(=O)C1CC(=O)Nc1ccc(F)cc1 (stereo not drawn) | 5.41% |
| Cc1ccc(S(=O)(=O)N2CCOCC2)cc1C(=O)NC(=S)N1CC(C)CC(C)C1 (stereo not drawn) | 11.2% |
| Cc1nn(CC(=O)Nc2ccc(F)cc2)c(=O)c2ccccc12 | 8.42% |

| Compound | hERG current change (%, negative = inhibition) at 1uM |
| --- | --- |
| CC(C)(C)c1cc(-n2ccnc2)n2ncc(-c3ccc(Cl)cc3)c2n1 | 10.5% |
| CCOC(=O)C1=C(C)NC(=O)NC1c1cc2c(cc1Br)OCO2 (stereo not drawn) | 12.5% |
| O=C(O)CCCNC(=O)CCCn1nnc2ccccc2c1=O | 6.07% |
| CNC(=O)c1cc(C(=O)c2ccc(Cl)cc2)c(Br)[nH]1 | 10.6% |
| CCOC(=O)/C(C#N)=C1/C=CN(c2ccccc2)C=N1 | 7.43% |
| O=C(O)c1c2c(nc3ccccc13)CCCCC2 | 18.1% |
| CC1(C)CC2CC(C)(CN2S(=O)(=O)c2ccc(C(=O)Nc3cccc(S(=O)(=O)N4CCOCC4)c3)cc2)C1 (stereo not drawn) | 7.05% |
| C[C@@H](CN1C2=NC[C@H](C)N2C[C@H]1Cc1ccc(O)cc1)NC(=O)CCC1CCCCC1 | 12.7% |
| Cc1cccc(-c2nc(S(=O)(=O)c3ccc(F)cc3)c(NCCCN3CCOCC3)o2)c1 | 12.1% |
| CCOc1ccc(CN(C)C(=O)CCN2C(=O)c3ccccc3C2=O)cc1OC | 16% |
| CC(NC(=O)c1ccc(Br)cc1)c1ccccc1 (stereo not drawn) | 7.96% |
| Cc1cccc(-c2noc(CN(C(=O)C34CC5CC(CC(C5)C3)C4)C(C)C)n2)c1 | 13.5% |
| COc1ccccc1NC(=S)NC12CN3CN(CN(C3)C1)C2 | 14.1% |
| Cc1cc(C)nc(NS(=O)(=O)c2ccc(NC(=O)CN3C(=O)C4CC=CCC4C3=O)cc2)n1 (stereo not drawn) | 8.99% |
| COc1ccc(CNC(=O)CSc2nnc(C)s2)cc1 | 11% |
| O=C(CSc1ccccc1F)NCCCN1CCCC1=O | 9.89% |
| COc1cc(NC(=O)Cc2ccc(S(=O)(=O)N3CCOCC3)s2)c(OC)cc1Cl | 16.6% |
| NC(=O)c1nsc(C(=O)N(c2ccccc2)C(C(=O)NCC2CCCO2)c2cccs2)c1N (stereo not drawn) | 3.6% |
| Cc1ccc(C(C)(C)C)cc1S(=O)(=O)N1CCC(C(=O)N2CCN(c3ccc(O)cc3)CC2)CC1 | 10.8% |
| O=C(CCl)NN1C(=O)NC(c2ccccc2)(c2ccccc2)C1=O | 14.5% |
| Cc1noc(C)c1CSc1nnc(-c2ccncc2)n1-c1ccc(Cl)c(Cl)c1 | -1.71% |
